# Test results taken from PubChem BioAssay.
# The shares of active, inactive and inconclusive entries below differ from those in the screen. Active and inactive are the calls of the source.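 The calls were made as follows, unless noted: active = viability loss from added drug above about 55%, and viability with drug at most 40%, in both replicates (limit read from the data, passing the limit was not always enough); inconclusive = both conditions met in only one replicate; inactive = neither replicate meets both conditions.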
# Experiment: H69AR cell proliferation blockers – human, duplicate replicates, primary screen (AID 580;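 active = viability at or under a set limit in both replicates, limit being median viability minus 3 SD, cut at about 48% in these data, passing the limit was not always enough; inconclusive = at or under the limit in just one replicate; inactive = at or above the limit in both replicates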;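 also: 100% = mean luminescence of untreated wells and 0% = no signal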)
# Conditions: H69AR lung tumor cells viability, ATP luminescence, 72 h; at 10 µM; active compounds read low
row,Structure (SMILES),viability
1,CC(=O)N1c2c(cc(Br)cc2S(=O)(=O)NCC2COc3ccccc3O2)CC1C (configuration not stated),inactive: 81.7%
2,COc1cc2[nH]c(=O)n(CCCCCC(=O)N3CCN(c4ccccn4)CC3)c(=O)c2cc1OC,inactive: 89.3%
3,COc1ccc(Nc2ncnc3c2cnn3-c2ccccc2)cc1OC,inconclusive: 42.7%
4,COCCOC(=O)c1[nH]c2c(c1C)C(=O)CC(c1ccco1)C2 (configuration not stated),active: 23.6%
5,COc1ccccc1N1CCN(c2cc(=O)n(Cc3ccc(F)cc3)c(=O)[nH]2)CC1,active: 12.1%
6,COc1ccc(C(=O)Oc2c(CN3CCOCC3)cc(Cl)c3cccnc23)cc1OC,active: 1.58%
7,O=C(CCCn1c(=O)[nH]c2ccsc2c1=O)N1CCN(c2ccccn2)CC1,inactive: 101%
8,Cn1ccnc1SCC(=O)Nc1ccc2ccccc2c1,inactive: 105%
9,CC(=O)OCCNc1cc(N2CCN(C)CC2)c2noc3c2c1C(=O)c1ccccc1-3,inactive: 66.9%
10,N#Cc1c2n(c(=O)[nH]c1=O)CCCCC2,inactive: 103%
11,CC(C)C(NC(=O)c1ccc(S(=O)(=O)N2CCOCC2)cc1)c1nc2ccccc2[nH]1 (configuration not stated),inactive: 82.2%
12,O=C(NCc1cccs1)C(Cc1ccccc1)NS(=O)(=O)c1cccs1 (configuration not stated),inactive: 91.7%
13,CCOc1ccc(N(CC(=O)Nc2cccc(OC)c2)S(=O)(=O)c2c(C)noc2C)cc1,inconclusive: 59.6%
14,CCCn1c(=O)c(C(=O)NCc2ccccn2)c(O)c2ccccc21,inconclusive: 57.5%

# Experiment: MRP1 drug-resistance reversers in H69AR cells – cell-based, doxorubicin co-treatment, pilot screen (AID 601)
# Conditions: H69AR cells + 2 uM doxorubicin, CellTiter-Glo, 72 h; at 10 µM; active compounds read high
row,Structure (SMILES),differential viability (reversal)
1,C=CCn1c(SCC(=O)c2cc(C)n(C(C)COC)c2C)nc2sc(C)c(C)c2c1=O (configuration not stated),active: 60.8%
2,CCOC(=O)c1sc(NC(=O)CSc2nnc(-c3ccco3)n2CC)c(C(=O)OCC)c1C,inconclusive: 53.9%
3,COc1ccc(C2c3c(-c4ccccc4O)n[nH]c3C(=O)N2CCc2ccc(OC)c(OC)c2)cc1 (configuration not stated),active: 57.9%
4,C=CCSc1nnc2n(-c3ccccc3OC)c(=O)c3c4c(sc3n12)CCC4,inconclusive: 60.2%
5,O=C(NCCc1ccccc1)c1cc(-c2ccco2)on1,inconclusive: 41.8%
6,CC1(C)Cc2c(C#N)c(SCCC#N)nc(N3CCOCC3)c2CS1,inconclusive: 57.7%
7,O=C(C1CCCCC1)N1CCC(c2nc3c(nnn3Cc3ccccc3Cl)c(=O)[nH]2)CC1,inconclusive: 54.6%
8,COCCn1c(SCC(=O)N2CCc3ccccc32)nc2c(c1=O)SC(C)C2 (configuration not stated),inconclusive: 36.2%
9,CCOC(=O)N1CCC(n2c(SCC(=O)NCc3ccco3)nc3ccsc3c2=O)CC1,inconclusive: 55.2%
10,CCOC(=O)c1cc2c(=O)n3ccccc3nc2n(CC2CCCO2)c1=NC(C)=O (configuration not stated),inconclusive: 54.1%
11,Cc1ccccc1Cn1c(=O)c2c(nc3n2CCCN3Cc2ccccc2)n(C)c1=O,inconclusive: 56.3%
12,COc1ccc(OC)c(NC(=O)CSc2nc3ccccc3c(=O)n2CCNC(C)=O)c1,active: 64.1%
13,COC(=O)C(C)Sc1nnc2n(-c3cccc(C)c3)c(=O)c3c4c(sc3n12)CCCC4 (configuration not stated),active: 64.7%
14,Cc1csc(NC(=O)CCCSc2nc3ccccc3s2)n1,inactive: 0.115%
15,Cn1c(=O)n(Cc2ccccc2)c(=O)c2c1nc(NCC1CCCO1)n2Cc1ccccc1 (configuration not stated),inconclusive: 47%
16,C=CCN1C(=O)/C(=C2/Sc3ccccc3N2C)SC1=Nc1c(C)n[nH]c1C,inconclusive: 51.5%
17,Cn1c(=N)c(S(=O)(=O)c2ccccc2)cc2c(=O)n3ccccc3nc21,inconclusive: 51.1%
18,Cc1ccc2oc(=O)c3cnn(CC(=O)N4CCCCC4C)c3c2c1 (configuration not stated),inconclusive: 48.5%
19,CC(C)CC1NC2(C(=O)N(C)c3ccccc32)C2C(=O)N(C(C)C)C(=O)C12 (configuration not stated),inconclusive: 39.5%
20,O=C(NCc1ccco1)c1ccc2c(=O)n(CC3CCCO3)c(=S)[nH]c2c1 (configuration not stated),inactive: 7.56%
21,Fc1ccc(C2C3=C(Nc4ncnn42)c2ccccc2OC3c2ccncc2)cc1 (configuration not stated),inconclusive: 54.2%
22,Cc1cccc2cc(CN(Cc3nnnn3Cc3ccco3)C3CCCC3)c3nnnn3c12,inconclusive: 60.3%
23,CCCNC(=O)c1cc(-c2ccco2)on1,inconclusive: 53.9%
24,CC(=O)Oc1cccc2c1C(=O)c1c(OC(C)=O)cc(C(=O)O)cc1C2=O,inactive: 0.27%
25,NC(=O)C1CCN(C(=S)c2cccs2)CC1,inactive: 11.5%

# Experiment: viability of PTEN-null HCT116 cells – cell-based, HCT116 clonal line, CellTiter-Glo, pilot screen (AID 824;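 active = viability at or below 27.92% in each of two runs, the all-compound median minus 4 SD; inconclusive = no clear call, values can overlap the other calls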;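 also: 0% = 20 µM Hyamine control and 100% = vehicle cell control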)
# Conditions: HCT116 PTEN-deleted viability, 60 h, at 10 µM, active compounds read low
row,Structure (SMILES),viability
1,CC(=O)N1c2c(cc(Br)cc2S(=O)(=O)NCC2COc3ccccc3O2)CC1C (configuration not stated),inactive: 81%
2,COc1cc2[nH]c(=O)n(CCCCCC(=O)N3CCN(c4ccccn4)CC3)c(=O)c2cc1OC,inconclusive: 67.9%
3,COc1ccc(Nc2ncnc3c2cnn3-c2ccccc2)cc1OC,inactive: 97.7%
4,COCCOC(=O)c1[nH]c2c(c1C)C(=O)CC(c1ccco1)C2 (configuration not stated),active: 23.9%
5,COc1ccccc1N1CCN(c2cc(=O)n(Cc3ccc(F)cc3)c(=O)[nH]2)CC1,inconclusive: 28.9%
6,COc1ccc(C(=O)Oc2c(CN3CCOCC3)cc(Cl)c3cccnc23)cc1OC,active: 5.98%
7,O=C(CCCn1c(=O)[nH]c2ccsc2c1=O)N1CCN(c2ccccn2)CC1,inconclusive: 104%
8,Cn1ccnc1SCC(=O)Nc1ccc2ccccc2c1,inconclusive: 104%
9,N#Cc1c2n(c(=O)[nH]c1=O)CCCCC2,inconclusive: 98.6%
10,CC(C)C(NC(=O)c1ccc(S(=O)(=O)N2CCOCC2)cc1)c1nc2ccccc2[nH]1 (configuration not stated),inconclusive: 92.3%
11,O=C(NCc1cccs1)C(Cc1ccccc1)NS(=O)(=O)c1cccs1 (configuration not stated),inconclusive: 84.4%
12,CCOc1ccc(N(CC(=O)Nc2cccc(OC)c2)S(=O)(=O)c2c(C)noc2C)cc1,inactive: 70.9%
13,CCCn1c(=O)c(C(=O)NCc2ccccn2)c(O)c2ccccc21,inactive: 104%
